According to PubChem BioAssay AID1345082 (National Center for Advancing Translational Sciences (NCATS), 2018):
The whole screen tested about 94,000 compounds, of which about 4,000 (4.3%) were called active. The shares of active, inactive and inconclusive entries below differ from those in the screen. The call rests on the fitted dose curve; in most records, active means well fitted inhibition curve with a large enough effect; inconclusive means small, poorly fitted or top-dose-only effect; inactive means no such curve, though single readings can be large or run the other way. A potency beside an inconclusive call is a rough fit, not a confirmed value.

experiment: Cytotoxic Profiling in NIH 3T3 Cell Line of Diverse Libraries Using Quantitative High-Throughput Screening; conditions: NIH 3T3 viability, CellTiter-Glo ATP luminescence, 48-72 h; activity change, negative = cytotoxicity: at 96.7 µM (top of the series); series mostly up to 96.7 µM; further: nearly all actives have a fitted effect of over 55% in size
In short: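 ATP-dependent luminescence (CellTiter-Glo) served as the viability signal for NIH 3T3 cells treated with compound for 48 or 72 hr at 37 °C.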
On the % scale 0 is the no-effect control and ±100 the full control effect; potency means the concentration at half of the fitted maximal effect; tags describe the fitted curve by direction and shape.

With `Cc1cnc(C2CC2)n1CCNS(=O)(=O)c1cc(F)cc(F)c1` as the compound, how does the “outcome” value read?
The value was “inactive”.

With `O=C1[C@@H]2C[C@@H](CN2Cc2nccs2)Oc2ccccc2N1Cc1ccc(OC(F)(F)F)cc1` as the compound, how does the Potency read?
The Potency was inconclusive: 44.7 µM [inhibitor, partial curve, poor fit].

Which “activity change, negative = cytotoxicity” value does the source give for `O=C([C@@H]1CNC[C@H](C(=O)N2CCN(c3nccs3)CC2)C1)N1CCCC1` here?
Its value is inactive: -5.77%.

With `CCCn1cc(CN2CCc3nc(NC)nc(C(=O)N4CCCC4)c3C2)c(C)n1` as the compound, how does the Potency read?
The Potency was inconclusive: 56.2 µM [inhibitor, partial curve, poor fit].

For `CC(C)N1CCN(CCN2CC3(CCN(C(=O)CCN)CC3)OC2=O)CC1`, which “activity change, negative = cytotoxicity” value is on record?
Its value is inactive: -0.239%.

With `O=C(c1ccc(Cl)nc1)N1CCC(C(=O)N2CCC(c3nc4ncccc4[nH]3)C2)CC1` (stereo not given) as the compound, how does the “activity change, negative = cytotoxicity” value read?
The value was inactive: 0.564%.

Which Potency does the source give for `c1cc(-c2cc(-c3ccc(N4CCOCC4)nc3)cn3cncc23)ccn1` here?
The Potency was inconclusive: 89.1 µM [inhibitor, partial curve].

Which Potency does the source give for `Cc1cc(C)cc(CN2CCC3(Cc4ccccc4CNC3=O)C2)c1` (stereo not given) here?
Its Potency is inconclusive: 79.4 µM [inhibitor, partial curve].

With `CC(C)(C)CN1CCOC[C@H]1c1ncc(-c2cccc(Cl)c2)[nH]1` as the compound, how does the Potency read?
The Potency was active: 89.1 µM.

Which “activity change, negative = cytotoxicity” value does the source give for `COC[C@@H]1CN(C(=O)c2cccn2C)C[C@H]1c1ccccn1` here?
The value was inactive: -3.49%.

With `CC1CCC2(CC1)NC(=O)N(CC(=O)NCc1ccccc1F)C2=O` (stereo not given) as the compound, how does the “activity change, negative = cytotoxicity” value read?
Its value is inactive: -39.8%.

Which Potency does the source give for `COc1ccc(CN2C(=O)[C@@H]3C[C@@H](CN3C(=O)c3cnccn3)Oc3ccccc32)cc1` here?
Its Potency is inconclusive: 112 µM [inhibitor, single point].

For `Cc1ccc(-c2ccc3nnc(CNC(=O)c4ccoc4)n3n2)cc1C`, which Potency is on record?
The Potency was inconclusive: 17.8 µM [inhibitor, partial curve].

With `CCOc1ccc(CC(=O)NC2CCN(c3cc(-c4ccc(OC)cc4)[nH]n3)CC2)cc1` as the compound, how does the Potency read?
Its Potency is inconclusive: 10 µM [inhibitor, full curve].

For `Cc1nn(-c2ccccc2)c2c1C(C(C)C)N(C1CCCN(C(=O)Cc3cccc(Cl)c3)C1)C2=O` (stereo not given), which Potency is on record?
Its Potency is inconclusive: 31.6 µM [inhibitor, full curve].

For `O=C(O)c1cccc(-c2n[nH]c3c2CC(=O)N(CCOc2ccccc2)C3)c1`, which Potency is on record?
Its Potency is inconclusive: 100 µM [inhibitor, single point].

With `Cc1ccc(C(=O)N2CCOC(c3ccc(Cl)c(Cl)c3)C2)c(=O)n1C` (stereo not given) as the compound, how does the Potency read?
Its Potency is inconclusive: 39.8 µM [inhibitor, full curve, poor fit].

For `COc1cc(CN2CCCC(c3[nH]ccc3C(N)=O)C2)ccc1F` (stereo not given), which “activity change, negative = cytotoxicity” value is on record?
The value was inactive: -17.4%.

With `O=C(NCCc1ccccc1)c1cc2n(n1)CC(c1ccc(Cl)cc1)OC2` (stereo not given) as the compound, how does the Potency read?
The Potency was inconclusive: 70.8 µM [inhibitor, single point].

For `CN(C)c1cccc(-c2nccc3c(=O)cc(-c4cn[nH]c4)oc23)c1`, which Potency is on record?
Its Potency is inconclusive: 70.8 µM [inhibitor, partial curve, poor fit].

Which Potency does the source give for `CCCNC(=O)N1C[C@@H](Oc2ccccc2)C[C@@H]1C(=O)NCCOC` here?
Its Potency is inconclusive: 79.4 µM [inhibitor, partial curve, poor fit].

Which Potency does the source give for `COc1ccc(-n2cc(-c3ccnc(N(C)Cc4cnccn4)n3)cn2)cc1` here?
Its Potency is inconclusive: 70.8 µM [inhibitor, partial curve, poor fit].

For `O=C(COc1ccc(F)cc1)N1CCOc2ccc(CN3CCc4ccccc4C3)cc2C1`, which Potency is on record?
Its Potency is inconclusive: 39.8 µM [inhibitor, partial curve, poor fit].

With `COc1cccc(Nc2ccc3c(n2)C(C)(C(=O)NC(C)C)CN(C)C3)c1` (stereo not given) as the compound, how does the Potency read?
Its Potency is inconclusive: 39.8 µM [inhibitor, full curve].

With `CN1C(=O)[C@@H]2C[C@@H](CN2Cc2ccc(OC(F)(F)F)cc2)Oc2ccccc21` as the compound, how does the Potency read?
Its Potency is inconclusive: 100 µM [inhibitor, single point].

For `COc1ccc(-n2nc(C3CCN(C(=O)Cc4cccc(Cl)c4)CC3)[nH]c2=O)cc1`, which Potency is on record?
The Potency was inconclusive: 39.8 µM [inhibitor, partial curve].

For `COc1ccc(-c2cc(C[C@@H]3CC[C@H](O)[C@@H](CNC4CCN(C)CC4)O3)no2)cc1`, which Potency is on record?
Its Potency is inconclusive: 112 µM [inhibitor, single point].

Which “activity change, negative = cytotoxicity” value does the source give for `O=C(c1ccccn1)N1CCCC(n2cc(-c3nc(-c4ccccc4)no3)nn2)C1` (stereo not given) here?
Its value is inactive: -26.6%.

With `COc1cc(-c2nc(-c3c(C)noc3C)cc3c2cc(C)n3CCN(C)C)ccn1` as the compound, how does the Potency read?
Its Potency is inconclusive: 3.16 µM [inhibitor, full curve, poor fit].

Which Potency does the source give for `Cn1cc(CN2CCN3CCCC3C2)c(-c2ccc(C3CCCCC3)cc2)n1` (stereo not given) here?
The Potency was inconclusive: 50.1 µM [inhibitor, partial curve, poor fit].

For `CC(C)NC(=O)C[C@@H]1c2nc(NC(=O)c3ccc(F)cc3)sc2C[C@@H]2[C@](C)(CO)[C@H](O)CC[C@]21C`, which “activity change, negative = cytotoxicity” value is on record?
Its value is inactive: -0.594%.

For `Cc1nn(-c2ccccc2)c2c1C(C)N(C1CCCN(C(=O)N(C)C)C1)C2=O` (stereo not given), which “activity change, negative = cytotoxicity” value is on record?
Its value is inactive: -19.5%.

Which “activity change, negative = cytotoxicity” value does the source give for `O=C(c1cn2ccsc2n1)N1CC[C@H](CO)[C@@H](O)C1` here?
Its value is inactive: 4.48%.

Which “activity change, negative = cytotoxicity” value does the source give for `COCCNC(=O)C1COC2(CCN(C(=O)c3ccc(OC)cc3)CC2)N1C(=O)c1ccc(C)cc1` (stereo not given) here?
Its value is inactive: -19.2%.

With `O=C(CCc1ccccc1)N1CCC(O)(c2csc(CN3CCc4ccccc4C3)n2)CC1` as the compound, how does the Potency read?
Its Potency is inconclusive: 50.1 µM [inhibitor, partial curve, poor fit].

With `COc1ccc(C(=O)NCC23CCC=C2N(CC2CC2)C(=O)CC3)cc1OC` (stereo not given) as the compound, how does the “activity change, negative = cytotoxicity” value read?
The value was inactive: -2.41%.

Which Potency does the source give for `O=C([C@@H]1C[C@@H](c2ccc(F)cc2)N(Cc2ccccc2)C1)N1CCN(c2ccccn2)CC1` here?
Its Potency is inconclusive: 39.8 µM [inhibitor, partial curve, poor fit].

Which Potency does the source give for `CCOC(=O)CN(C(=O)CC1CCCC1)[C@H]1C[C@H]2CCOC[C@H]2C1` here?
Its Potency is inconclusive: 50.1 µM [inhibitor, partial curve, poor fit].

Which Potency does the source give for `COc1cccc(CCC(=O)N2CC(c3nnc(-c4ccncc4)o3)C3(CCOCC3)C2)c1` (stereo not given) here?
Its Potency is inconclusive: 50.1 µM [inhibitor, partial curve, poor fit].

Which Potency does the source give for `O=C(c1ccc(F)cc1)N1CCC2(CC1)COc1ccccc1[S+](=O)([O-])N2` here?
Its Potency is inconclusive: 56.2 µM [inhibitor, partial curve, poor fit].
